# From publication PMC4336329 (PLoS ONE, 2015)
# Screen size: about 310,000 compounds; about 14,000 (4.5%) showed an effect of 50% or more. The effect is printed as a negative number. The list shows a part of the results.
# Biological target: human ether-à-go-go-related gene (hERG) potassium channel (human, UniProt Q12809)
# Assay: primary screen, population patch clamp on CHO cells stably expressing hERG
# 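Further: peak tail current of the secondary pulse compared with the same well before compound.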
# Chain of human ether-à-go-go-related gene (hERG) potassium channel (Q12809 whole entry, looked up): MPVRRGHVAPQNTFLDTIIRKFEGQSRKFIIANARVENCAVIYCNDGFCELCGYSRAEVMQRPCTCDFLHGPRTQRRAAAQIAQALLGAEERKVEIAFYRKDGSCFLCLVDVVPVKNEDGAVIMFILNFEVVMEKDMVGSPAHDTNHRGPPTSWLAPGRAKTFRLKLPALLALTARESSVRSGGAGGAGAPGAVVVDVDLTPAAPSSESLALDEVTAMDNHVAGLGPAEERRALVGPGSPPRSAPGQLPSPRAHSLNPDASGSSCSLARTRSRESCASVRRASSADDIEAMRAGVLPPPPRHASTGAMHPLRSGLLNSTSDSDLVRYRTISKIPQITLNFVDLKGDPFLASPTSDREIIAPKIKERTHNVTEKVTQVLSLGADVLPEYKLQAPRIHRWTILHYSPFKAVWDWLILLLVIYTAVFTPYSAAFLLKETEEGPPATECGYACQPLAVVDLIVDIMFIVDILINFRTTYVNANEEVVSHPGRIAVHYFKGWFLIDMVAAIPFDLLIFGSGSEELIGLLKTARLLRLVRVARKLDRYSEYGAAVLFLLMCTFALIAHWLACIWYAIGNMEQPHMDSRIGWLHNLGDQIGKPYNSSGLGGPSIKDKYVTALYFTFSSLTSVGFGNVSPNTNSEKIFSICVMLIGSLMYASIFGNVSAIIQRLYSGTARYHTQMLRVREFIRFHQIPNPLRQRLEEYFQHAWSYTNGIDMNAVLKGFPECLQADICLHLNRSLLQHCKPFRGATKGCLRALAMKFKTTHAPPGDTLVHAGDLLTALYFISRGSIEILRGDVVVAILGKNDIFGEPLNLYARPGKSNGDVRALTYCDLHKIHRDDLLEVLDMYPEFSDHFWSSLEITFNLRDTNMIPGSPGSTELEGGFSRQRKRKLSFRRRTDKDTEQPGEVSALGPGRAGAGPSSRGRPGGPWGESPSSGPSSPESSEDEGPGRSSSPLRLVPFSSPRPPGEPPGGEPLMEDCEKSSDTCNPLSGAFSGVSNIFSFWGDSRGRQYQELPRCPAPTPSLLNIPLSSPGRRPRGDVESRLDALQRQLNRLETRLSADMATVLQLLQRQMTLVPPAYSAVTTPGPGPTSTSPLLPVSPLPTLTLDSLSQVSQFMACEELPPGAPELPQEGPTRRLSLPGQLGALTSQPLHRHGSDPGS
row,Compound,"hERG current change (%, negative = inhibition) at 10uM [%]"
1,COC(=O)C1=C(c2c(C)noc2C)C[C@@H]2CC[C@H]1N2C(=O)NCC1CC1,13.6
2,CCOC(=O)c1c(C)n(Cc2ccc3c(c2)OCO3)c2ccc(O)cc12,6.78
3,CC(OC(=O)CCc1nc2ccccc2c(=O)[nH]1)C(=O)c1ccc(Br)cc1 (centres unmarked),-36.4
4,CCOC(=O)c1c(NC(C)=O)sc2c1CCN(Cc1ccccc1)C2.Cl,-20.5
5,CC(C)c1ccc(S(=O)(=O)N2CCN(C(=S)NCc3ccco3)CC2)cc1,0.194
6,Br.CCCCCCCn1c(=N)n(CC(=O)c2ccco2)c2ccccc21,-70.6
7,O=C(Cn1nnc2ccccc2c1=O)N[C@@H](Cc1ccccc1)C(=O)O,11.1
8,COc1ccc(Oc2nnc(-c3ccc(C)cc3)c3ccccc23)cc1,5.64
9,O=C(CNC(=O)c1cccnc1)N=Nc1c(O)[nH]c2c(Br)cc(Br)cc12,-40.2
10,CCC1(c2ccc(OC)cc2)NC(=O)N(CC(=O)NC2CCCCC2C)C1=O (centres unmarked),-4.7
11,Nn1c(SCc2cccc(F)c2)nnc1-c1cccnc1,9.33
12,COc1ccc(C(=O)C2CCN(CC(=O)Nc3ccccc3F)CC2)cc1,-17.2
13,COc1ccc(NC(=O)CN(C)C(=O)CSc2ccc(Br)cc2)cc1,2.32
14,O=C(CNC(=O)c1ccccc1F)N/N=C/c1ccco1,19.3
15,Cc1noc(NS(=O)(=O)c2ccc(NC(=O)CCCOc3ccc(Cl)cc3Cl)cc2)c1C,6.36
16,O=C(CN1C(=O)NC2(CCCC2)C1=O)NNC(=O)c1ccc(Br)cc1,-0.24
17,N#Cc1cc(NCC2CCCO2)c([N+](=O)[O-])cc1C#N (centres unmarked),-20.1
18,Cc1cc(C)n(-c2ccc(S(N)(=O)=O)cc2[N+](=O)[O-])n1,-1.17
19,CC(C)C(NS(=O)(=O)c1ccc2c(c1)oc(=O)n2C)C(=O)N1CCN(C2CCCCC2)CC1 (centres unmarked),2.88
20,Oc1ccccc1/C=N/Nc1ncc(Br)cn1,-0.366
21,O=C(CSc1nc2scc(-c3ccco3)c2c(=O)n1-c1ccccc1)N1CCOCC1,-10.6
22,CCCN(CCC)S(=O)(=O)c1ccc(C(=O)Nc2nnc(CSC)o2)cc1,0.929
23,CCOc1ccc(C(=O)NC(=S)Nc2cccc(NC(=O)c3ccco3)c2)cc1[N+](=O)[O-],17
